Results are given in words; binding and its absence hold for the method and conditions named. Binding seen in cells or lysates may run through a third protein. Some binding calls cover weakened binding; strength is not graded here.
Legend:
[1] = biological target: lymphocyte-specific protein 1 (LSP1), endogenous (human (endogenous in primary macrophages)) (UniProt P33241); assay: co-IP; immunoprecipitation of endogenous LSP1 or myosin IIA from macrophage lysates (500 mM NaCl, 2% Triton X-100, 50 mM Tris-HCl pH 8.0), µMACS Protein A/G Microbeads, washes with RIPA and high-salt RIPA; control IgG; western blot
[2] = biological target: myosin IIA, endogenous (human (endogenous in primary macrophages)) (UniProt P35579); assay: as above
[3] = biological target: GFP-fused full length LSP1 (human) (UniProt P33241); assay: co-IP; anti-GFP immunoprecipitation (µMACS anti-GFP Microbeads) from lysates of macrophages expressing GFP-fused constructs (500 mM NaCl, 2% Triton X-100, 50 mM Tris-HCl pH 8.0), washes with RIPA and high-salt RIPA; GFP alone as control; western blot of endogenous partners, densitometry

Amino acid sequences for entries named in this document (tags omitted).
UniProt P35579: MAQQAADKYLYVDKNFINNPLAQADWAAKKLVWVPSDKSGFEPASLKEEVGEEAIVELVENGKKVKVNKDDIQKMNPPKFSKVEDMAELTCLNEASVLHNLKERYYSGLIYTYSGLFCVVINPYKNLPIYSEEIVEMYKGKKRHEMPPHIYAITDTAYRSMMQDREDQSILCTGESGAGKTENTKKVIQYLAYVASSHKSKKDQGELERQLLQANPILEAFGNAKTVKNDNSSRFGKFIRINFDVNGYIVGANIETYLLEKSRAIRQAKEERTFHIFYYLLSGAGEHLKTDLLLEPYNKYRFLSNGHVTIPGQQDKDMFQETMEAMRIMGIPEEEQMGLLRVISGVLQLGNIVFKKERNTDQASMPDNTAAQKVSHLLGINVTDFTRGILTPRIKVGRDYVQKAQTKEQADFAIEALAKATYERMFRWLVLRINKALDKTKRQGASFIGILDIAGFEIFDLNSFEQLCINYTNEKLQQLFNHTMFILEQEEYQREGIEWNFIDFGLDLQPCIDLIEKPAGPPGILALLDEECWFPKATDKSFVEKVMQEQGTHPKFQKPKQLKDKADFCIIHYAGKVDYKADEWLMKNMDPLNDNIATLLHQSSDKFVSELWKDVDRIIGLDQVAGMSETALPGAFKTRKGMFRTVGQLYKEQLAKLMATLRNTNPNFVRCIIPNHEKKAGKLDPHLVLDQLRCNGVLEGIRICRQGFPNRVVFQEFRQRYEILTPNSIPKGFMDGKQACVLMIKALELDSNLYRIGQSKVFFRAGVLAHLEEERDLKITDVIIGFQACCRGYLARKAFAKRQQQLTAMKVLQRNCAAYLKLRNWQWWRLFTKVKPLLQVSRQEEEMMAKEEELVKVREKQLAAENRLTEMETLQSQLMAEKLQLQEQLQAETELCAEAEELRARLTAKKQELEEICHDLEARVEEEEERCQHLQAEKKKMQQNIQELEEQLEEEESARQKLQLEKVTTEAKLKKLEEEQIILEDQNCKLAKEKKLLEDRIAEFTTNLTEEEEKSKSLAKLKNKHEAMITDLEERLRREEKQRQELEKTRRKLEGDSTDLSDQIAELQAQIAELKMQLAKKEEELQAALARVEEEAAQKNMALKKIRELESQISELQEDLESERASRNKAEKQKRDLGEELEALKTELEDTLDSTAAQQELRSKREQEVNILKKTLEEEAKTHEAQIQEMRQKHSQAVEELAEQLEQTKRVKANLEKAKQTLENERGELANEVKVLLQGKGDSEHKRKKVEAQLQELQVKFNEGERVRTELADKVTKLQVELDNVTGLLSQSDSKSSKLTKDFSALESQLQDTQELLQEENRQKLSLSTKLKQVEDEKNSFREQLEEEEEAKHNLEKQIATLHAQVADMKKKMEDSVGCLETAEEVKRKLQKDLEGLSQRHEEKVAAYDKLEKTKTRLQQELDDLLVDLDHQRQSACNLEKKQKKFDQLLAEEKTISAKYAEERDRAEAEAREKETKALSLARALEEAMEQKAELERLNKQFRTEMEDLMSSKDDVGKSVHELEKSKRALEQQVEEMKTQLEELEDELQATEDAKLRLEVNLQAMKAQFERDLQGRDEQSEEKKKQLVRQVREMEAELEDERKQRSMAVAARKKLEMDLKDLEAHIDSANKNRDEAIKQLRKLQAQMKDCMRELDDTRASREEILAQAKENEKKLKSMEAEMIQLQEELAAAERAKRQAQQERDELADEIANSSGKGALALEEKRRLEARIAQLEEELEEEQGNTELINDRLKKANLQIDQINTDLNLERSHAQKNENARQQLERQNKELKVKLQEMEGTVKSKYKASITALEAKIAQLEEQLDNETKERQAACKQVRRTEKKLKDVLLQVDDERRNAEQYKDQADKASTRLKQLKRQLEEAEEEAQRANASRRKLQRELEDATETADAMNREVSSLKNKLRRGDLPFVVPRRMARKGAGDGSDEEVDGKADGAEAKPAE
UniProt P67775: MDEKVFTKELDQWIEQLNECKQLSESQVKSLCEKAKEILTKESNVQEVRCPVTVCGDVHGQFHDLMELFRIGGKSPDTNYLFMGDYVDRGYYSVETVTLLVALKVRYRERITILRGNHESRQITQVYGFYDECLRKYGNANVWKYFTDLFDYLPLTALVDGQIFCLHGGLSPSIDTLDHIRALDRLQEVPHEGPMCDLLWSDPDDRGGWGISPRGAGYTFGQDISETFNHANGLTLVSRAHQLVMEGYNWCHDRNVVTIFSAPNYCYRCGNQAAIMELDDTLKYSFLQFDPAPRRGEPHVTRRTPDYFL
UniProt P62136: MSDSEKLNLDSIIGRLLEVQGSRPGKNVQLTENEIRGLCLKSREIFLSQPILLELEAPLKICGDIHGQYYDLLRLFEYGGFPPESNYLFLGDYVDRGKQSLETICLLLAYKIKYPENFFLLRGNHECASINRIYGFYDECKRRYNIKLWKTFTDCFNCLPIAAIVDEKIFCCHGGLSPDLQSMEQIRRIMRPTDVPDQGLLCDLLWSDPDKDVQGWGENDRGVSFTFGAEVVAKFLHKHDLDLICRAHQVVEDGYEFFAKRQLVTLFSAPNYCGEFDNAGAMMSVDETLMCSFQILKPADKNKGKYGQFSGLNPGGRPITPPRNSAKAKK
UniProt Q15746: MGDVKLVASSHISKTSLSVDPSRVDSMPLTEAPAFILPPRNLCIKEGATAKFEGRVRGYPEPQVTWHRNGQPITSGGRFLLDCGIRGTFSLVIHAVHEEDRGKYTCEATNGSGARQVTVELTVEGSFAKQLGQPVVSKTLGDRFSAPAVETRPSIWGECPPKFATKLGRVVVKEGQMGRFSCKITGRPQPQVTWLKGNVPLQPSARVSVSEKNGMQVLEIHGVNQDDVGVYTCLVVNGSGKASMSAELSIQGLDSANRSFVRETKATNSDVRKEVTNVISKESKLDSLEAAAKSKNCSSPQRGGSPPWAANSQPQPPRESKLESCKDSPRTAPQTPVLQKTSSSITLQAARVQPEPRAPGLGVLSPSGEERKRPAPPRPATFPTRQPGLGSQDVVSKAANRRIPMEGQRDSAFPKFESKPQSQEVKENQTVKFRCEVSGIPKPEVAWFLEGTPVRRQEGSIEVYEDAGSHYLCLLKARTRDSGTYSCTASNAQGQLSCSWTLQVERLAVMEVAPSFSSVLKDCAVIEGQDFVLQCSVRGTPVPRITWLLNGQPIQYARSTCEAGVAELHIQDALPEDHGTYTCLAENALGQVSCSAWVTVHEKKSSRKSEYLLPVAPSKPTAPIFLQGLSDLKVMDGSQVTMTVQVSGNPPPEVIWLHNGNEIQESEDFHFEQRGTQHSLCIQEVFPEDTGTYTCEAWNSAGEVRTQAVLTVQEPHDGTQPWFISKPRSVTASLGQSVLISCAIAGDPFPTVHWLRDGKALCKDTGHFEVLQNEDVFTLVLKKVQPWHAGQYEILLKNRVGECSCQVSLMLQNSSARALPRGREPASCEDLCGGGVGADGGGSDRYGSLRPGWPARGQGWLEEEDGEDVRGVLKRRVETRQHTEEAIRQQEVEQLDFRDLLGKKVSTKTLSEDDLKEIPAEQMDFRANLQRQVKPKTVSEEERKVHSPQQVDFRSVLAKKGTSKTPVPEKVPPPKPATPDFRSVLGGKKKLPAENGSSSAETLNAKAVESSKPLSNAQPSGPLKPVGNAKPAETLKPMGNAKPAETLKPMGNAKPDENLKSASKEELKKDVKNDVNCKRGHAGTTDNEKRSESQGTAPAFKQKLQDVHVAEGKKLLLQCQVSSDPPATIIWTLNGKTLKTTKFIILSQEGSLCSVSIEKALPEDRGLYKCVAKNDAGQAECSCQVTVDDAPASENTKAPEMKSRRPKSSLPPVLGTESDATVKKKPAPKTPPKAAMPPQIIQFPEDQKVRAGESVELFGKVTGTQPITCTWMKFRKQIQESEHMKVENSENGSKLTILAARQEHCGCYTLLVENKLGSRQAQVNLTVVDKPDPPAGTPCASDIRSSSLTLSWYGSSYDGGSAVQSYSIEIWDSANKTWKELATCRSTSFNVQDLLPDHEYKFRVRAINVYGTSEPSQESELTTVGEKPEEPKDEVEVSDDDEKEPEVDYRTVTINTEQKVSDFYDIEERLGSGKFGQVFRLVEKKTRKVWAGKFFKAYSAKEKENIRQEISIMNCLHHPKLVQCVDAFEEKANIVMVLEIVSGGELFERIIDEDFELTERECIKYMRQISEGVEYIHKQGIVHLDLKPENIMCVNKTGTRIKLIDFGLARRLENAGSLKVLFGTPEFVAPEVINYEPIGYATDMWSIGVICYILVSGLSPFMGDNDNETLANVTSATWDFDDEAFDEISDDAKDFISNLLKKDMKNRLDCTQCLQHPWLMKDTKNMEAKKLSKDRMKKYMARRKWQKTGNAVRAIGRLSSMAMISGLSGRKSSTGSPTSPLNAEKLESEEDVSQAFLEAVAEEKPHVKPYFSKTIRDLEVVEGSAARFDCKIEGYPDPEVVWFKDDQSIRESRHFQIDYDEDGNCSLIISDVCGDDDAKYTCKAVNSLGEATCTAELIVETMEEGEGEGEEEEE
UniProt O75116: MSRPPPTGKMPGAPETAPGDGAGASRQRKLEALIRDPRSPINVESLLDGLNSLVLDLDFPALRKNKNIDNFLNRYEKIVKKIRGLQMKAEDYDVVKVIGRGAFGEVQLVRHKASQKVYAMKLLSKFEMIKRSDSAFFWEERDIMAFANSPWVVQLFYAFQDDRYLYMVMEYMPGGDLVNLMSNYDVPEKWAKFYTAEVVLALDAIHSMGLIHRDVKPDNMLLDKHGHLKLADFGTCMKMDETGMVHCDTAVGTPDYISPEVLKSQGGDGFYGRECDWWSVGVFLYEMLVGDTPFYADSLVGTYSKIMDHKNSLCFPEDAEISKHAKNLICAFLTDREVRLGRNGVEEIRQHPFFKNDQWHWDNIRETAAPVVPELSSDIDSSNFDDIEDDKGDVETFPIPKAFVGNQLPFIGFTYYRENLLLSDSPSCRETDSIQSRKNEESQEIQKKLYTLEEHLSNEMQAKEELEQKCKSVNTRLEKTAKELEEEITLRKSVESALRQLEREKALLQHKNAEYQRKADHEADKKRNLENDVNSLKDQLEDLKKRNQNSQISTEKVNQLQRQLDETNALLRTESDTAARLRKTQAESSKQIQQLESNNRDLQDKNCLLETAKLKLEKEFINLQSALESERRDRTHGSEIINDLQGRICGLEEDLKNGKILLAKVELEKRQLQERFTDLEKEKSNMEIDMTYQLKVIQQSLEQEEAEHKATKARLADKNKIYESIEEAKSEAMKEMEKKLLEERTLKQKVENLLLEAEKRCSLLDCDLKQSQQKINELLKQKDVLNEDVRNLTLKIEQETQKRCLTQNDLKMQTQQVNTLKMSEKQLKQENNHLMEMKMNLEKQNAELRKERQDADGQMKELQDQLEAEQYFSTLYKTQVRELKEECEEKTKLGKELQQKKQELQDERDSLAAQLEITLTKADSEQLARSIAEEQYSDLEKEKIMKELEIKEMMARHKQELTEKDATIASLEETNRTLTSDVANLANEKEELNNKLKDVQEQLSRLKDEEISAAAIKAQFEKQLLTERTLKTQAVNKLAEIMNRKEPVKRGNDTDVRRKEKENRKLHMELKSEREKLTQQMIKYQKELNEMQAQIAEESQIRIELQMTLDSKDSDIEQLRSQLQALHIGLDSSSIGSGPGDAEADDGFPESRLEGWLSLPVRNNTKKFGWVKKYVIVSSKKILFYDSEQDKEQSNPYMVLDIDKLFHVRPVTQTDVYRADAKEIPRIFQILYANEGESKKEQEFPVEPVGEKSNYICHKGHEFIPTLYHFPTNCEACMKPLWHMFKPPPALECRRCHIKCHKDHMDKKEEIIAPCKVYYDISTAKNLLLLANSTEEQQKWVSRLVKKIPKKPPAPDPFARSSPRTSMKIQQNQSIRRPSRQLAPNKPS
UniProt P61586: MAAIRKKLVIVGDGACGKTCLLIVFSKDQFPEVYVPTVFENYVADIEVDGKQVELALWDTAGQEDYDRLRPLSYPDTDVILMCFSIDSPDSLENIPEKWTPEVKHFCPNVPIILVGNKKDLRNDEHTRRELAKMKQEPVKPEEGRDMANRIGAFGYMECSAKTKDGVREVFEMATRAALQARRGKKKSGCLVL

Substance	binding [1]	binding [2]	binding [3]
protein phosphatase (PP) 2, endogenous (from UniProt P67775 1-309) (enzyme)	no binding	no binding	
protein phosphatase (PP) 1, endogenous (from UniProt P62136 1-330) (enzyme)	no binding	no binding	
long form of myosin light chain kinase (L-MLCK), endogenous (from UniProt Q15746 1-1914) (enzyme)	binds	binds	binds
Rho kinase (ROCK) 2, endogenous (from UniProt O75116 1-1388) (enzyme)	no binding	no binding	
RhoA, endogenous (from UniProt P61586 1-193)	no binding		

Source: paper PMC5802837, “Lymphocyte-specific protein 1 regulates mechanosensory oscillation of podosomes and actin isoform-based actomyosin symmetry breaking” (Nature Communications, 2018)
